Holding throughout (test): Viability of human cancer cell lines after 72 h of drug (GDSC screen)
Compound in assay [1]: Cc1cccc(-c2[nH]c(C(C)(C)C)nc2-c2ccc3c(c2)OCO3)n1 [SB-505124]
The following applies: top dose 10 µM; top dose inferred. Here is the method:
(§1)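 Human cancer cell lines in 384-well plates, medium with 10% serum, drug for 72 h over a 256-fold dose range (nine 2-fold or five 4-fold steps up to the top dose). Adherent lines were fixed and stained with the nucleic acid dye Syto60, suspension lines read with resazurin; signal relative to control wells, capped at 0 and 100%. One two-parameter sigmoid per drug and line, fitted in a mixed model over all curves with the slope shared within a line.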

Compound in assay [2]: O=C(NCCCNc1nc(Nc2cccc(NC(=O)N3CCCC3)c2)ncc1I)c1cccs1 [BX-795]
The settings on record: top dose 5 µM; top dose inferred. The procedure: as §1

Compound in assay [3]: CC1=C(/C=C/C(C)=C/C=C/C(C)=C/C(=O)O)C(C)(C)CCC1 [Tretinoin]
The settings on record: top dose 10 µM; top dose inferred. Here is the method:
as §1

Compound in assay [4]: COc1cc2c(NC3CCN(C(C)C)CC3)nc(C3CCCCC3)nc2cc1OCCCN1CCCC1 [UNC0638]
Here is the method: as §1

Compound in assay [5]: Oc1cccc(-c2nc(N3CCOCC3)c3oc4ncccc4c3n2)c1 [PI-103]
The following applies: top dose 10.24 µM. The procedure:
as §1

Compound in assay [6]: CCn1c(-c2nonc2N)nc2c(C#CC(C)(C)O)ncc(OC[C@H]3CCCNC3)c21 [GSK690693]
The settings on record: top dose 10.24 µM; top dose inferred. The procedure: as §1

The mark [7] stands for this setting: top dose 20 µM, screen: GDSC drug entry 1236, top dose inferred.
[8] abbreviates: top dose 40 µM, screen: GDSC drug entry 245.

IC50 is the fitted dose that halves viability relative to control wells, and lower means more sensitive; a fit beyond the top or the lowest dose is shown as a bound at that dose. AUC is the area under the same curve over the 256-fold range up to the top dose, as a fraction; the more sensitive the line, the further below 1. For some assays here: The top dose, if marked as inferred, is not printed in the source and was worked back from the curve model. For some assays here: An entry number marks a drug with two screens in the source, which often give different values.

In the case of A375 (melanoma, adherent), the AUC came out at 0.962 in assay [1]; 0.718 in assay [2]; 0.965 in assay [3]; 0.967 in assay [4] (setting [7]); 0.892 in assay [4] (setting [8]). Further, the IC50 was more than 10 µM in assay [1]; 1.13 µM in assay [2]; more than 10 µM in assay [3]; more than 20 µM in assay [4] (setting [7]); 32.4 µM in assay [4] (setting [8]).
For the cell line BALL-1 (B-cell leukaemia, suspension), the AUC stood at 0.99 in assay [1], 0.947 in assay [2], 0.976 in assay [3] and 0.897 in assay [4] (setting [7]). The IC50 in assay [1] was more than 10 µM; in assay [2] it was 4.96 µM; in assay [3] it was more than 10 µM; in assay [4] (setting [7]) it was 12.8 µM.
For the cell line BT-549 (breast, adherent), the AUC in assay [1] stood at 0.976; in assay [2], 0.869; in assay [3], 0.979; in assay [4] (setting [7]), 0.775. The IC50 in assay [1] is more than 10 µM; in assay [2] it was more than 5 µM; in assay [3], more than 10 µM; in assay [4] (setting [7]), 11.2 µM.
For CL-34 (large intestine, adherent), the AUC in assay [1] worked out at 0.986; in assay [2], 0.934; in assay [3], 0.987; in assay [4] (setting [7]), 0.983. Also, the half-maximal inhibitory concentration (IC50) is more than 10 µM in assay [1], more than 5 µM in assay [2], more than 10 µM in assay [3] and more than 20 µM in assay [4] (setting [7]).
Consider CL-40 (large intestine, adherent), for which the AUC in assay [1] stood at 0.972; in assay [2], 0.861; in assay [3], 0.952; in assay [4] (setting [7]) it was 0.928. For the same cell line, the half-maximal inhibitory concentration (IC50) in assay [1] is more than 10 µM; in assay [2], more than 5 µM; in assay [3], more than 10 µM; in assay [4] (setting [7]), more than 20 µM.
With “CML-T1 (chronic myeloid leukaemia, suspension)”, the AUC was found to be 0.964 in assay [1], 0.856 in assay [2], 0.88 in assay [3] and 0.833 in assay [4] (setting [7]). The 50% inhibitory concentration (IC50) is more than 10 µM in assay [1], 2.98 µM in assay [2], 7.36 µM in assay [3] and 9.94 µM in assay [4] (setting [7]).
Turning to CRO-AP2 (B-cell lymphoma, suspension), the AUC stood at 0.947 in assay [1], 0.657 in assay [2], 0.986 in assay [3] and 0.73 in assay [4] (setting [7]). Also, the half-maximal inhibitory concentration (IC50) was more than 10 µM in assay [1], 0.799 µM in assay [2], more than 10 µM in assay [3] and 5.06 µM in assay [4] (setting [7]).
As for DIFI (large intestine, adherent), the AUC is 0.986 in assay [1], 0.925 in assay [2], 0.982 in assay [3] and 0.979 in assay [4] (setting [7]). The IC50 in assay [1] is more than 10 µM; in assay [2], more than 5 µM; in assay [3], more than 10 µM; in assay [4] (setting [7]), more than 20 µM.
On to EW-22 (Ewing sarcoma, adherent), for which the AUC in assay [1] was determined as 0.986; in assay [2], 0.845; in assay [3], 0.98; in assay [4] (setting [7]), 0.785. Besides, the IC50 was more than 10 µM in assay [1], 3.41 µM in assay [2], more than 10 µM in assay [3] and 8.19 µM in assay [4] (setting [7]).
For the cell line HCC202 (breast, adherent), the AUC in assay [1] is 0.958; in assay [2], 0.979; in assay [3], 0.981; in assay [4] (setting [7]), 0.825; in assay [4] (setting [8]), 0.612. Further, the IC50 in assay [1] is more than 10 µM; in assay [2], more than 5 µM; in assay [3] it was more than 10 µM; in assay [4] (setting [7]), 19.1 µM; in assay [4] (setting [8]), 5.75 µM.
For the cell line HCC2998 (large intestine, adherent), the AUC amounted to 0.985 in assay [1]; 0.98 in assay [5]; 0.985 in assay [3]; 0.791 in assay [4] (setting [7]); 0.754 in assay [4] (setting [8]); 0.953 in assay [6]. Further, the IC50 was more than 10 µM in assay [1]; more than 10.2 µM in assay [5]; more than 10 µM in assay [3]; 8.73 µM in assay [4] (setting [7]); 13.1 µM in assay [4] (setting [8]); more than 10.2 µM in assay [6].
On to “HCC-366 (non-small cell lung carcinoma, adherent)”, for which the AUC in assay [1] amounted to 0.981; in assay [2] it was 0.934; in assay [3], 0.988; in assay [4] (setting [7]), 0.835. The IC50 in assay [1] was more than 10 µM; in assay [2], more than 5 µM; in assay [3], more than 10 µM; in assay [4] (setting [7]) it was 13.9 µM.
On to HMV-II (melanoma, adherent), for which the AUC in assay [1] worked out at 0.98; in assay [5], 0.739; in assay [3] it was 0.933; in assay [4] (setting [7]), 0.806; in assay [4] (setting [8]), 0.66; in assay [6], 0.935. For the same cell line, the IC50 in assay [1] is more than 10 µM; in assay [5] it was 3.66 µM; in assay [3], more than 10 µM; in assay [4] (setting [7]) it was 13 µM; in assay [4] (setting [8]), 7.73 µM; in assay [6], more than 10.2 µM.

The values are drawn from the supplement of paper PMC4967469.
